The results in this text go back to the supplement of paper PMC3334620.

The full ranking holds about 33,000 sequences; the median of “E-score (-0.5 to 0.5)” is about -0.036, and the highest 2% start at about 0.37. The list shows a part of the results.

For this assay, the target named is T1, Yer064c (UniProt P40041).
T1 sequence: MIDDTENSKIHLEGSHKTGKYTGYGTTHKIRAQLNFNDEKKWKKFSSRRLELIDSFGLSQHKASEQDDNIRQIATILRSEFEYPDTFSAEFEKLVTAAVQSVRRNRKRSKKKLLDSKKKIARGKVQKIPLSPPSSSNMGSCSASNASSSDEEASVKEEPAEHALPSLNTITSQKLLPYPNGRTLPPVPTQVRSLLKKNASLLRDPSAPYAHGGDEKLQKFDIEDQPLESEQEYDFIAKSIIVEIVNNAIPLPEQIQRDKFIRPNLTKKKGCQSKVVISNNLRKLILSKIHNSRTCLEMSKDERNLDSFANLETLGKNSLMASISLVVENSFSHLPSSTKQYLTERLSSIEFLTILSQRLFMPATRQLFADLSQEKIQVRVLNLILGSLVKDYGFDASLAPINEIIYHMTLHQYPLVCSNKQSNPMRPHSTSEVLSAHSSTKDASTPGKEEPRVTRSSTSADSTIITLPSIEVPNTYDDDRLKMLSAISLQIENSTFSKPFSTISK
As to the kind of experiment: PBM E-score (8-mer binding enrichment) (E-score (-0.5 to 0.5)); higher = stronger / more preferred TF binding; most listed sequences are background and not binding sites. The settings on record: protein concentration: 200 nM; construct: GST-full length. Summed up:
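The E-score, a modified Wilcoxon-Mann-Whitney statistic, was computed by the Universal PBM Analysis Suite for every ungapped eight-base word pooled with its reverse complement. Scans behind it were normalised with masliner after bound GST-tagged yeast transcription factors were detected with fluorescent anti-GST. The proteins, at about 100-200 nM, had been applied to universal all-10-mer Agilent arrays made double-stranded by primer extension.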
Regarding ACGCCTCC, the “PBM E-score” value was -0.238.
For the sequence ATCCCCAG, the “PBM E-score” value is -0.21.
The same measure for AGAACCGG: -0.11.
As to AAATCCTA, the “PBM E-score” value amounted to 0.0374.
On to ACTGAAGA, for which the “PBM E-score” value was found to be 0.17.
Regarding AGCCGTTG, the “PBM E-score” value turned out to be 0.0482.
The same measure for AGGGGGAG: -0.257.
With CCGTTGCC, the “PBM E-score” value is -0.095.
Consider CCCGGCGC, for which the “PBM E-score” value was -0.18.
With ATCTGAAT, the “PBM E-score” value was determined as 0.207.
With ACAGGGAG, the “PBM E-score” value is -0.0887.
For the sequence GGCTGTCA, the “PBM E-score” value is -0.292.
The same measure for AGTGCAGG: -0.0536; for CCGAACTC: 0.0416.
As for AGATACCA, the “PBM E-score” value was -0.0967.
Next, CCATGTAA: -0.0253.
For AGCGGAAA, the “PBM E-score” value is -0.0127.
Consider ACTCTCAT, for which the “PBM E-score” value was found to be 0.112.
Next, ATACCTTA: -0.0105.
For the sequence TAAGGCAA, the “PBM E-score” value amounted to 0.00187.
As for AGTGTTAG, the “PBM E-score” value stood at 0.0331.
Next, TCAGGCCA: 0.0102; CCACGGCA: -0.163.
As to AGTCATTG, the “PBM E-score” value turned out to be 0.475.
Next, CTCCAGGC: -0.0681; CTTGCGGC: -0.2.
With GGCAGCAA, the “PBM E-score” value is -0.355.
On to AATCCCGG, for which the “PBM E-score” value is -0.0977.
Turning to GCGAACGA, the “PBM E-score” value is 0.0793.
For the sequence CTTCTGCA, the “PBM E-score” value is -0.191.
The same measure for GGCCGGCC: -0.232.
With ACACCCTC, the “PBM E-score” value worked out at 0.0117.
The same measure for ATGCGACA: -0.0273; for ACAATTTA: 0.117.
The same measure for AACGCACG: -0.174; for TCACACAA: 0.16.
As to GAATCTGA, the “PBM E-score” value turned out to be 0.195.
Take AGCTTGCA: the “PBM E-score” value is -0.165.
On to ACGTCCGA, for which the “PBM E-score” value was -0.1.
The same measure for AGTCTTAC: 0.415.
Next, CACGAGCC: -0.037; AAGTTTGA: 0.0608; AATCGTGT: 0.11.
The same measure for AAGATGTC: -0.0873.
For CTTTCCAA, the “PBM E-score” value is -0.037.
Next, AAGCACAT: 0.0547; AGACGTCA: -0.0773; AACTCGGA: 0.0305.
The same measure for CATGGTGG: -0.164.
Next, GCAGACCC: -0.364.
Consider CGTATTCC, for which the “PBM E-score” value is -0.155.
Regarding CGGCAGCC, the “PBM E-score” value is -0.0567.
Next, AATCTTAC: 0.183.
In the case of AGTCCATA, the “PBM E-score” value worked out at 0.151.
ACTCGGCT: the “PBM E-score” value turned out to be 0.0356.
GATCCGAC: the “PBM E-score” value is -0.0318.
Next, GAGGACAA: -0.195.
Consider CCCCGCGA, for which the “PBM E-score” value is -0.0453.
Turning to CCCTGACA, the “PBM E-score” value is -0.134.
With ATAGCCCA, the “PBM E-score” value was determined as 0.0203.
The same measure for CAATTTGA: 0.0752; for TACAACGA: 0.0811.
Next, CGGAGGTC: -0.14.
For CGAAACCC, the “PBM E-score” value is -0.21.
Turning to ACACGCTG, the “PBM E-score” value was -0.18.
Regarding ATAAGCTC, the “PBM E-score” value is -0.245.
Next, ACTTCGCT: 0.0871.
For the sequence CATAGTTA, the “PBM E-score” value turned out to be 0.139.
Next, CTGTCGGC: -0.202; AGCGTGGC: -0.00134.
Next, AATCTATG: 0.0755.
The same measure for CCAGCTGC: -0.131; for GATTTGAC: 0.255.
In the case of TATGGTGA, the “PBM E-score” value was found to be 0.0193.
Next, CGATCCCG: -0.155; CTCCGCCA: -0.0652; GAGGGGCC: -0.285.
On to AATATACT, for which the “PBM E-score” value amounted to 0.121.
In the case of AGTAGTAG, the “PBM E-score” value was 0.00559.
The same measure for CCTTACAA: -0.221; for ACTTGCCC: -0.0306; for GCTCAGCC: -0.0368.
For the sequence GGGACCAA, the “PBM E-score” value was -0.178.
The same measure for AAGGATTC: 0.0961.
In the case of CAAACTAA, the “PBM E-score” value came out at 0.0575.
Consider ACCTTCCC, for which the “PBM E-score” value is -0.2.
